Among the data in article PMC8766471, “Mutations affecting the N-terminal domains of SHANK3 point to different pathomechanisms in neurodevelopmental disorders” (Scientific Reports, 2022) are binding values, retold here.

Protein sequences, listed by entry. Tags and fused reporters are not part of them. Lines headed by an entry give the natural chain unless they say otherwise; changes in a name come on top. Chains listed by the source or under a name are the forms on record and can include a tag or linker. Residues count along the entry.
UniProt Q9JLU4: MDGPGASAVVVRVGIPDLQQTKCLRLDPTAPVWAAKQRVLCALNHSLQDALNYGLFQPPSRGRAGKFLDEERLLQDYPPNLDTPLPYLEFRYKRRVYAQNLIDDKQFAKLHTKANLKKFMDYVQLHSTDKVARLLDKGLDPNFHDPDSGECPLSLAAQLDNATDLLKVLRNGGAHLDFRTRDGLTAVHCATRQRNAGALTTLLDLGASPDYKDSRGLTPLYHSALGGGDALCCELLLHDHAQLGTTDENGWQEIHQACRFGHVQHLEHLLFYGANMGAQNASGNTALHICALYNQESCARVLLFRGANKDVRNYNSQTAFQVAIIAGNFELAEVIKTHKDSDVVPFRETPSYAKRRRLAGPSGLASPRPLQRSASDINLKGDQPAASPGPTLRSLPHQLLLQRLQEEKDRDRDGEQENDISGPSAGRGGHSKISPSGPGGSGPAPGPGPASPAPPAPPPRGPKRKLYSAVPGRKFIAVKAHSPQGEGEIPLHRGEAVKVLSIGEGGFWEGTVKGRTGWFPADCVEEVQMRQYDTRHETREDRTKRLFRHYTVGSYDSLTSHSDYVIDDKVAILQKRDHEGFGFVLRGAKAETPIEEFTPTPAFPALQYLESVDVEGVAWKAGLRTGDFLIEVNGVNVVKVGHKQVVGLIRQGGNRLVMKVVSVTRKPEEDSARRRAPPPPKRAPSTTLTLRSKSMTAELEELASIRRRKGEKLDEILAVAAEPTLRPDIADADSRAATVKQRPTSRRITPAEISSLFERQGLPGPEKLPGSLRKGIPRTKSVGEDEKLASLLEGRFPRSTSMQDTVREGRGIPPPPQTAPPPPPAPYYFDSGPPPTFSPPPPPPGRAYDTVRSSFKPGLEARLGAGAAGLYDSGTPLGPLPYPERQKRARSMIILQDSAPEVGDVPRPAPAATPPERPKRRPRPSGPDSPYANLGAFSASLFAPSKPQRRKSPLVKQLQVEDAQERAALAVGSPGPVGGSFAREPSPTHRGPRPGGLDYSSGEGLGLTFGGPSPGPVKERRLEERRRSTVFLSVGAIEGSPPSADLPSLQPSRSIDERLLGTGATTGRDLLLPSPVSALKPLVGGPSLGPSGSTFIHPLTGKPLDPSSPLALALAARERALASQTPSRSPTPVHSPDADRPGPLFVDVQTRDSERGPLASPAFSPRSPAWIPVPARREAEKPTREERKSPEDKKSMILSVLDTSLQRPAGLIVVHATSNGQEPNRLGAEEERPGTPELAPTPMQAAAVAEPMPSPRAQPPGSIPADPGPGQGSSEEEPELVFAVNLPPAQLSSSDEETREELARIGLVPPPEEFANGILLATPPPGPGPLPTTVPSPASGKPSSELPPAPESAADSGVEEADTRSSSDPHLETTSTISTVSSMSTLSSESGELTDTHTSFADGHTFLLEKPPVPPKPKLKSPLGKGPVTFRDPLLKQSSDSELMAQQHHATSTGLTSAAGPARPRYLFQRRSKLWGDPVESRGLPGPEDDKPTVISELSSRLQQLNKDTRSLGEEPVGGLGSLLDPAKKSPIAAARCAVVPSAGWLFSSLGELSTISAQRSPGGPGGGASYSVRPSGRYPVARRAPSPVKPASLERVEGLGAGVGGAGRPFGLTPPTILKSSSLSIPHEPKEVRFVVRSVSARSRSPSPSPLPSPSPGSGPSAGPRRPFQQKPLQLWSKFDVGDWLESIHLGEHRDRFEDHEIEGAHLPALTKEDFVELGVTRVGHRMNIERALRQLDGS
Shank3 N-terminus (residues 1-339) N52R, mRFP-tagged (Q9JLU4, form named): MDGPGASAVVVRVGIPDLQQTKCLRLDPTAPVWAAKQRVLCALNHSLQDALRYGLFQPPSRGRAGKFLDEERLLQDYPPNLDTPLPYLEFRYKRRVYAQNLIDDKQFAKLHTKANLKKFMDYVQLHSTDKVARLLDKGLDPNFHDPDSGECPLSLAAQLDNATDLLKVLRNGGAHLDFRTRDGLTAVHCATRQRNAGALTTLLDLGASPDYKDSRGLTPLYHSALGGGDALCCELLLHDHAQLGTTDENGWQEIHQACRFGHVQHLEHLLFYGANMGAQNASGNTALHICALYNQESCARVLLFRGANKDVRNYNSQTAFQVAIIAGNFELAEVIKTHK
Shank3 N-terminus (residues 1-339) Q106P, mRFP-tagged (Q9JLU4, form named): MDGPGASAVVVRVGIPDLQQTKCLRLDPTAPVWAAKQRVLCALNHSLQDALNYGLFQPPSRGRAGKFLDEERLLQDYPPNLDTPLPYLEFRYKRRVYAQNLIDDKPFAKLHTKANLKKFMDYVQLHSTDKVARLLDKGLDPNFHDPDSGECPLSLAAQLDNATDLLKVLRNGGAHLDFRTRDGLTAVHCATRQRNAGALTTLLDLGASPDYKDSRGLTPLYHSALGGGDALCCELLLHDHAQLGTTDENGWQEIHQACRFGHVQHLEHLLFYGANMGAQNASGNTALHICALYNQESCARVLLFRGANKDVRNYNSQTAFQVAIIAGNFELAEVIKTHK
Shank3 N-terminus (residues 1-339) D69G, mRFP-tagged (Q9JLU4, form named): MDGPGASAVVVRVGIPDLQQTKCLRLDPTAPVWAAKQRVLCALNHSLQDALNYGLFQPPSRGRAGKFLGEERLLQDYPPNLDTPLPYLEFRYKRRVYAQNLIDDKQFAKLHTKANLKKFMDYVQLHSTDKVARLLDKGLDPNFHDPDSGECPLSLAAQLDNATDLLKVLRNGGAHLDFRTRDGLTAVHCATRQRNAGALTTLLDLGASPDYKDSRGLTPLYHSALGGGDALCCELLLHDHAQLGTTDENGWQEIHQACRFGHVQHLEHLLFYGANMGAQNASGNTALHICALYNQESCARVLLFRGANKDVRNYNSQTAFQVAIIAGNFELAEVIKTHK
Shank3 N-terminus (residues 1-339) G250C, mRFP-tagged (Q9JLU4, form named): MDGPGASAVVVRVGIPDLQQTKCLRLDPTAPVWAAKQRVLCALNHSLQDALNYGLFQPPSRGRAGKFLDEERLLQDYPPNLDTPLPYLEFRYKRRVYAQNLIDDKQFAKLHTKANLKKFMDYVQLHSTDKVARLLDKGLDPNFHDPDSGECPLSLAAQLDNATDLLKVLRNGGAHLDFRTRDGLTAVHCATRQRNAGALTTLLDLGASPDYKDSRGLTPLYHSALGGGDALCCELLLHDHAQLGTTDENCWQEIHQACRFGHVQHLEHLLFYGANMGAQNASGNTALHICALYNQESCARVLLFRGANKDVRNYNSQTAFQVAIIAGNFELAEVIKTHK
Shank3 N-terminus (residues 1-339) L270M, mRFP-tagged (Q9JLU4, form named): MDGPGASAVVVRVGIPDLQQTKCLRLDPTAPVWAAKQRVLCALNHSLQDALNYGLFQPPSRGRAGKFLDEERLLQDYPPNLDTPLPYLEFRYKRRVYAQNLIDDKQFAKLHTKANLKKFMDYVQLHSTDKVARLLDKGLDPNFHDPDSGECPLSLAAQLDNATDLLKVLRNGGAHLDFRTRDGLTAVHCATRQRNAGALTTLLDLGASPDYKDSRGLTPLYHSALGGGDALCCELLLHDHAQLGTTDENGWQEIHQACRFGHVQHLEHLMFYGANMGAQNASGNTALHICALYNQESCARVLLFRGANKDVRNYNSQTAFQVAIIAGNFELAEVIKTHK
Shank3 N-terminus (residues 1-339) L68P, mRFP-tagged (Q9JLU4, form named): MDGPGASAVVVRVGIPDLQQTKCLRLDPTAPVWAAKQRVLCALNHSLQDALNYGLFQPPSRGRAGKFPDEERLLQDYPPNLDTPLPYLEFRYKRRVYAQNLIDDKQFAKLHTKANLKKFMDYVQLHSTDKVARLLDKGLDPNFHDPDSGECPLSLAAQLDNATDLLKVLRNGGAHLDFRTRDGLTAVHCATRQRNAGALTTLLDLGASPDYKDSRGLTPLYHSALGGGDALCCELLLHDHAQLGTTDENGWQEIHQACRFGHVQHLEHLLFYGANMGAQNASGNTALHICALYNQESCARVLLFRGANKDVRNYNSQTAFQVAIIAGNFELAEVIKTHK
Shank3 N-terminus (residues 1-339) P141A, mRFP-tagged (Q9JLU4, form named): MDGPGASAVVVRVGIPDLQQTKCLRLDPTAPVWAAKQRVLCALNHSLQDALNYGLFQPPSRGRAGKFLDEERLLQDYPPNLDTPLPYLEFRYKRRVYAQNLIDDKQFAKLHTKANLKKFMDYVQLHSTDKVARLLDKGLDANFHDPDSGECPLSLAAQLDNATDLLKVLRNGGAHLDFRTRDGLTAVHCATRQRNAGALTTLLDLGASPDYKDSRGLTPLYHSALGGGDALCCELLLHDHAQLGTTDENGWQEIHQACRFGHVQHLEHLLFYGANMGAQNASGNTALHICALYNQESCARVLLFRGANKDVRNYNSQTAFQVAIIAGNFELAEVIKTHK
Shank3 N-terminus (residues 1-339) Q256H, mRFP-tagged (Q9JLU4, form named): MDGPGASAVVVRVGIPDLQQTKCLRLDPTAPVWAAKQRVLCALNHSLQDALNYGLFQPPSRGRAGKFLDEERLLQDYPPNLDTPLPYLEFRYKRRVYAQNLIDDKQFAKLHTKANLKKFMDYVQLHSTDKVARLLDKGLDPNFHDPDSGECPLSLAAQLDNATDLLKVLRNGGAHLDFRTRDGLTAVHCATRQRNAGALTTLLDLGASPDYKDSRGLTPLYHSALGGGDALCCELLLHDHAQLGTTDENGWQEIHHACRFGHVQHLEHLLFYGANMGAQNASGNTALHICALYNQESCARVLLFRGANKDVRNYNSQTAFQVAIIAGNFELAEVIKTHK
Shank3 N-terminus (residues 1-339) Q317R, mRFP-tagged (Q9JLU4, form named): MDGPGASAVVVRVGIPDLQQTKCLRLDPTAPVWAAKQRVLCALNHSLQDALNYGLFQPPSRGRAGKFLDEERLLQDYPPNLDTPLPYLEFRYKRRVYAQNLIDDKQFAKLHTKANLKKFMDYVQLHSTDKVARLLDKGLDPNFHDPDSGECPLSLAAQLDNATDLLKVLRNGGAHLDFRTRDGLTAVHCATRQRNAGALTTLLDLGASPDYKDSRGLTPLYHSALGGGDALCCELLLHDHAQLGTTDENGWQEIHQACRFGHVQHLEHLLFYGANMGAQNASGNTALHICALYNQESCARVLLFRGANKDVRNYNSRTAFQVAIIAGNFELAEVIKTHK
Shank3 N-terminus (residues 1-339) T337S, mRFP-tagged (Q9JLU4, form named): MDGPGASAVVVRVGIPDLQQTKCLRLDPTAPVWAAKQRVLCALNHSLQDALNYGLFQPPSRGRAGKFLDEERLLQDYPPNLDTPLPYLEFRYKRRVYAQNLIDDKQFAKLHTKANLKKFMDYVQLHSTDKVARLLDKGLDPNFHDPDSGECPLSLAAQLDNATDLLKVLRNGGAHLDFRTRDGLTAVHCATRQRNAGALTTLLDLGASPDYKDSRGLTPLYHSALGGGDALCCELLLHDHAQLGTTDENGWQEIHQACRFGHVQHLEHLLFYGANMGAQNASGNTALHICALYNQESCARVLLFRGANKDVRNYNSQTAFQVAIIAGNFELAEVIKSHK
Shank3 N-terminus (residues 1-339) Y272C, mRFP-tagged (Q9JLU4, form named): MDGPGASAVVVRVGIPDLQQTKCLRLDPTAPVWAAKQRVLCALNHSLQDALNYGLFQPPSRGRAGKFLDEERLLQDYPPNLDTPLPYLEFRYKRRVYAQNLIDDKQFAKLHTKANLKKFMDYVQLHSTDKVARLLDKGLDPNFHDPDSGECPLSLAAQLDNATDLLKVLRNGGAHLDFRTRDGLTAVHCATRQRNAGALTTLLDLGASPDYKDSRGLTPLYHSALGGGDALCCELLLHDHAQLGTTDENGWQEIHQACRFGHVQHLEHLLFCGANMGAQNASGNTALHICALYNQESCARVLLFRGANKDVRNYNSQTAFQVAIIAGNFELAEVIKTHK
UniProt P11275: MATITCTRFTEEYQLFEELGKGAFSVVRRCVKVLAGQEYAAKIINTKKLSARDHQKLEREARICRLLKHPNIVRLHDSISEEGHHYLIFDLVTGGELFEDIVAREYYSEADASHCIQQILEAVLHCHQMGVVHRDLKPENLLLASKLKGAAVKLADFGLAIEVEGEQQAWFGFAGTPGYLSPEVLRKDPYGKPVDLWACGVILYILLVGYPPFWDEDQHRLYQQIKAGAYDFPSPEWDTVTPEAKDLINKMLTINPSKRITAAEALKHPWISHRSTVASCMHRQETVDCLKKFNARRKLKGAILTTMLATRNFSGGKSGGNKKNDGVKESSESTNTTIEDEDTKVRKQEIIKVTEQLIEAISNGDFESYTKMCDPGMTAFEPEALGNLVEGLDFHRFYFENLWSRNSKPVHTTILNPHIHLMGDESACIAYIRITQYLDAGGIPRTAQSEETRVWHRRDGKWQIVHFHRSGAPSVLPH
UniProt P62834: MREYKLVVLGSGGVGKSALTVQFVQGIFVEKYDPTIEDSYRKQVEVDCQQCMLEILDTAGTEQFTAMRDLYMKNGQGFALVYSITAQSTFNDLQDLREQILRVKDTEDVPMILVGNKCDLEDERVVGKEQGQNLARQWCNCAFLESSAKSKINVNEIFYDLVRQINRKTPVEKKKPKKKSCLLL

Experiment in all cases: co-IP; mRFP-tagged Shank3 constructs coexpressed with the partner in 293T cells; lysis in IP buffer (50 mM Tris pH 8, 120 mM NaCl, 0.5% NP40, 1 mM EDTA); RFP-trap beads, five washes; Western blot of input and precipitate
Experiment [1] addresses Shank3 N-terminus (SPN + Ank domains, residues 1-339), WT, mRFP-tagged (rat) (UniProt Q9JLU4).
The target in experiment [2] is Shank3 N-terminus (residues 1-339) N52R, mRFP-tagged (rat) (UniProt Q9JLU4).
For experiment [3], the target named is Shank3 N-terminus (residues 1-339) Q106P, mRFP-tagged (rat) (UniProt Q9JLU4).
The target in experiment [4] is Shank3 N-terminus (residues 1-339) D69G, mRFP-tagged (rat) (UniProt Q9JLU4).
Experiment [5] has as its target Shank3 N-terminus (residues 1-339) G250C, mRFP-tagged (rat) (UniProt Q9JLU4).
In experiment [6] the target is Shank3 N-terminus (residues 1-339) L270M, mRFP-tagged (rat) (UniProt Q9JLU4).
Experiment [7] concerns the target Shank3 N-terminus (residues 1-339) L68P, mRFP-tagged (rat) (UniProt Q9JLU4).
The target of experiment [8] is Shank3 N-terminus (residues 1-339) P141A, mRFP-tagged (rat) (UniProt Q9JLU4).
Experiment [9] addresses Shank3 N-terminus (residues 1-339) Q256H, mRFP-tagged (rat) (UniProt Q9JLU4).
For experiment [10], the target named is Shank3 N-terminus (residues 1-339) Q317R, mRFP-tagged (rat) (UniProt Q9JLU4).
Experiment [11] deals with Shank3 N-terminus (residues 1-339) T337S, mRFP-tagged (rat) (UniProt Q9JLU4).
Experiment [12] has as its target Shank3 N-terminus (residues 1-339) Y272C, mRFP-tagged (rat) (UniProt Q9JLU4).
Experiment [13] has as its target Shank3 N-terminus (SPN + Ank domains, residues 1-339), WT, mRFP-tagged (rat) (UniProt Q9JLU4). This is another data set of the same source.
The target in experiment [14] is Shank3 N-terminus (residues 1-339) D69G, mRFP-tagged (rat) (UniProt Q9JLU4). This is another data set of the same source.

Like-named read-outs stand apart in the source and are kept apart here. No constants are given. Whether binding was seen depends on the method and setting. In cells and extracts the contact can be indirect. Some entries that bind do so weakly or less than the wild type. For some of these results: Sequences can lack the tags named with a protein.

“α-subunit of the calcium/calmodulin dependent kinase II, T7-tagged (from UniProt P11275 1-478) (enzyme)”: the binding result in experiment [1] is on record as “binds”; in [2], “no binding”; in experiment [3], “binds”.
Consider “Rap1a G12V, GFP-tagged (constitutively active) (from UniProt P62834 1-184)”, for which the binding result in experiment [1] is given as “binds”; in experiment [4], “binds”; in experiment [5] it was “binds”; in [6] it was “binds”; in [7], “no binding”; in experiment [8] it was “binds”. The binding result in [3], in experiment [9], in [10], in experiment [11] and in [12] was “binds” each time.

B1: δ-catenin, GFP-tagged (protein, UniProt O35927 1-1247)
chain: MFARKQSGAAPFGAMPVPDQPPSASEKNSSLSPGLNTSNGDGSETETTSAILASVKEQELQFERLTRELEAERQIVASQLERCKLGSETGSMSSISSAGEQFHWQTQDGQKDIEDELTTGLELVDSCIRSLQESGILDPQDYSTSERPSLLSQSALQLNSKPEGSFQYPASYHSNQTLALGDTAPSQLPARSTQARAAGQSFSQGTTGRAGHLAGSEPAPPPPPPREPFAPSLGSAFHLPDAPPAAAALYYSSSTLPAPPRGGSPLTTTQGGSPTKLQRGGSAPEGAAYAAPRGSSPKQSPSRLAKSYSTSSPINIVVSSAGLSPIRVTSPPTVQSTISSSPIHQLSSTIGTYATLSPTKRLVHASEQYSKHSQELYATATLQRPGSLAAGSRASYSSQHGHLAPELRALQSPEHHIDPIYEDRVYQKPPMRSLSQSQGDPLPPAHTGTFRTSTAPSSPGVDSVPLQRTGSQHGPQNAAAATFQRASYAAGPASNYADPYRQLQYCASVDSPYSKSGPALPPEGTLARSPSIDSIQKDPREFGWRDPELPEVIQMLQHQFPSVQSNAAAYLQHLCFGDNKIKAEIRRQGGIQLLVDLLDHRMTEVHRSACGALRNLVYGKANDDNKIALKNCGGIPALVRLLRKTTDLEIRELVTGVLWNLSSCDALKMPIIQDALAVLTNAVIIPHSGWENSPLQDDRKIQLHSSQVLRNATGCLRNVSSAGEEARRRMRECDGLTDALLYVIQSALGSSEIDSKTVENCVCILRNLSYRLAAETSQGQHMGTDELDGLLCGETNGKDTESSGCWGKKKKKKKSQDQWDGVGPLPDCAEPPKGIQMLWHPSIVKPYLTLLSECSNPDTLEGAAGALQNLAAGSWKGWAEDVAGMAYALRSLPEGAPCLPQWSVYIRAAVRKEKGLPILVELLRIDNDRVVCAVATALRNMALDVRNKELIGKYAMRDLVHRLPGGNNSNNSGSKAMSDDTVTAVCCTLHEVITKNMENAKALRDAGGIEKLVGISKSKGDKHSPKVVKAASQVLNSMWQYRDLRSLYKKDGWSQYHFVASSSTIERDRQRPYSSSRTPSISPVRVSPNNRSASAPASPREMISLKERKTDYESAGNNATYHGTKGEHTSRKDTMTAQNTGVSTLYRNSYGAPAEDIKQNQVSTQPVPQEPSRKDYETYQPFPNSTRNYDESFFEDQVHHRPPASEYTMHLGLKSTGNYVDFYSAARPYSELNYETSHYPASPDSWV
B1: the binding result in experiment [13] and in experiment [14] was “binds” each time.
